# According to the supplement of paper PMC11417369:
# ± gives the standard deviation of the averaged measurements. Some of the results follow.
# Test system: PfAP2-EXP AP2 domain (GST-tagged)
# Assay: gcPBM binding intensity (ln(normalized median fluorescence intensity)); higher = stronger DNA binding
# Summary of the method: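 GST-tagged P. falciparum DNA-binding domains, expressed in E. coli (about 25 μg on average), were applied for 1 h to an Agilent 4 × 180k array of primer-extended double-stranded 36-bp intergenic genomic probes plus negative controls. The binding buffer was 1× PBS with 1% milk, 0.2 mg/ml BSA, 0.5% salmon testes DNA and 0.03% Triton X-100. Bound protein was detected with Alexa488 anti-GST antibody and scanned at 488 nm. Binding intensity is the highest Masliner-normalised natural-log median intensity across replicate spots of either probe orientation.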
row,Sequence,gcPBM binding intensity (ln)
1,AGAGTATATATATATGCATGCATATCTCATATTTAT [TGCATGCA_site509],9.635 ± 0.021
2,ATAGAAATTATAAATAGTACATAATAAAAATGAGCA [XGTACX_site822],8.94 ± 0.3
3,TGAGGAAACATGAGATGTACATATAAATTTTTTTTT [XGTACX_site2595],8.36 ± 0.52
4,CCTAAATATTTTTTATGTACATATTTATCTAAATTT [XGTACX_site6835],8.82 ± 0.31
5,ATTAAAGAGATATATACACACATTATGGGGGAATAA [CACACA_site6226],9.34 ± 0.44
6,TAAGAAATAAATAGTACACACATAGACACCCACCCA [CACACA_site8429],9.46 ± 0.49
7,AAACAAAATGGTAACACACACATATATAAATATGTA [CACACA_site6994],8.43 ± 0.45
8,AGGGTTACAAGAGGAACACACAAAAAAATAAATAAA [CACACA_site1436],8.71 ± 0.71
9,AAAAAAAATAGACACACACACATACACATAAATATA [CACACA_site7742],8.79 ± 0.52
10,TTTATATTACAATAATATATTAAAAAATAAAATATA [TGCATGCA_negctrl_site18],7.95 ± 0.69
11,ATTAAATCTATATATACACACATGTTTGGTATATTC [CACACA_site2657],8.64 ± 0.38
12,TTTGTAATAAACTACTTTTTTTTTTTTTTTTTTTTT [CACACA_negctrl_site571],8.92 ± 0.057
13,ATCTATTTCTATTGTTGTACTTATTTTTCATTGTTT [XGTACX_site6942],9.29 ± 0.69
14,CGATTACTAATTTTTAGTACATATAATCAATATGTA [XGTACX_site7857],8.13 ± 0.25
15,ATGTAGCCTTACGCTTGTACGAATATCTTAATTTTT [XGTACX_site4331],8.46 ± 0.36
16,TTCATATAAATACATGCACACAAAAATATCAATACA [CACACA_site8753],9.07 ± 0.24
17,ATATATTTTATTACCAGTACATATATTAAAATAATA [XGTACX_site8440],8.45 ± 0.38
18,ATATAATGTGTAGGCCGTATTTACGTTTGGCAATCA [CACACA_negctrl_site1130],8.65 ± 0.48
19,ATTTTTTTATTTGATTGTACAATTTTCTTTCAAAAT [XGTACX_site2902],8.9 ± 0.48
20,TATACAATATAAAATACACACGCACCCAAAAAAAAA [CACACA_site9174],8.86 ± 0.52
21,TATAATATAATATATATATATATATATATATAAGAA [CACACA_negctrl_site78],8.56 ± 0.13
22,ATATATTTATTAAGGTGTACAAAAATTATGTTGCAT [XGTACX_site7546],8.64 ± 0.3

row,Sequence,gcPBM binding intensity (ln)
1,TATTTTATCTAAGGATGTACATTATTAAGAAAATGT [XGTACX_site6123],8.26 ± 0.4
2,ATTTATTTATATAGAAGTACATATTTATTTATATAT [XGTACX_site6283],8.19 ± 0.23
3,TAGAAATATAATTAATGTACATATGATATTATATAT [XGTACX_site923],8.38 ± 0.33
4,ACATCAAGCAGACACACACACACACCCACCCACCGA [CACACA_site371],8.7 ± 0.59
5,CTTTTTTAAATTATTGCACACAAAAATGAAAGGAAA [CACACA_site8412],8.51 ± 0.33
6,AACGAGCAAGACGGGGTGCACACAAACTAATATGCC [GTGCAC_site9436],9.66 ± 0.28
7,TAATAAAAGATATATACACACAAATAAATAAATAAA [CACACA_site7818],8.7 ± 0.39
8,AAATATAAAAAAAATATATAATTTTTACATCGAATT [CACACA_negctrl_site544],8.24 ± 0.38
9,AAAAAAAAATATATATATATATATATAAATAAATTT [CACACA_negctrl_site519],8.14 ± 0.47
10,ATAATATAAACATATTGTACACATATATTGCTATTT [XGTACX_site2799],8.51 ± 0.26
11,TTATTATTGTTATGTTGTACTTTTACAAACTTTTTG [XGTACX_site8797],8.8 ± 0.36
12,TTCTATGAATTCATAGTGCAAATGAGTTATTTTTTC [GTGCAC_site9709],8.44 ± 0.23
13,AAGAAAATAGGGTTCATAGGATTATACTTTTGGAAT [TGCATGCA_negctrl_site80],8.22 ± 0.67
14,GTTATACGCATATATACACACATATGTAAATATATA [CACACA_site3280],8.57 ± 0.42
15,CTTTTTATTAAATATGCATGTGTATCAACAGTGAAT [TGCATGCA_site447],8.74 ± 0.35
16,TAAAAAAAATAGCATACACACATATATACCTATATA [CACACA_site4535],8.24 ± 0.28
17,ATCATAACACCTCCACACAAATAAATATAACATATA [XGTACX_negctrl_site269],8.62 ± 0.63
18,ATGAGTGCACAAATATATATATATATATATATATAT [CACACA_negctrl_site404],10.2 ± 0.47
19,TTGTTTTTTTCTTTTTGTACATATACAACATACATA [XGTACX_site8996],8.86 ± 0.49
20,CATACACCCGGACACACACACACACCCATATATAAT [CACACA_site4494],8.81 ± 0.39
21,GAAAATATATTATTTACACACATGTTCAAATTAAAA [CACACA_site3761],8.35 ± 0.4
22,AAACAATTTATGTGTAGTACATGTTGGAGATAATTT [XGTACX_site6000],8.86 ± 0.38

row,Sequence,gcPBM binding intensity (ln)
1,TATTAAATATAAGTCACACATAATTTTTCGTCCTTT [CACACA_site5065],8.37 ± 0.3
2,TACTGATCCACATTTATACACACCTCGGTTTGTAGA [CACACA_site417],8.56 ± 0.4
3,ATATATATATATACAACACACATGTAATATATAAAT [CACACA_site3294],10 ± 0.31
4,TATAGATTCTTTTAATGTACATGTCTTTTCATTTCC [XGTACX_site8348],8.68 ± 0.54
5,TTTTTAAATATATAATAGAATTGATTGTATTATATA [CACACA_negctrl_site196],7.96 ± 0.56
6,GTATGAAAAAAAATATGTACACATATATATTTGGTA [XGTACX_site6309],8.44 ± 0.27
7,CCTTTATACATTTTCTGTACTGATATATATTAAAAA [XGTACX_site8467],8.74 ± 0.34
8,TTGTGTTCTTATTTTTACACCGAAAAATATTAAAAG [CACACA_negctrl_site535],8.55 ± 0.29
9,ATATAAAAAAAAAAAAAAAAATATATATATATATAT [GTGCAC_negctrl_site251],10.2 ± 0.13
10,TTGGTTTGAAAGAAAGAAATTATTAAAAAGGAAATA [CACACA_negctrl_site26],8.48 ± 0.47
11,GATATACTGTCAATTCTACACACCATAGGGGGAGCA [CACACA_site8562],9.68 ± 0.33
12,TATATTTATATACCAACACACATACATATTTATATA [CACACA_site6931],8.45 ± 0.57
13,AAAATTCAGCGAAAGGGTACATATGTGTAAGGGTAA [XGTACX_site8205],9.18 ± 0.5
14,CTATTATATCAGTAGACACACATATAACATTTATAT [CACACA_site141],8.6 ± 0.4
15,ATATTATATAGAAACACACATACACATGTAAATATA [CACACA_site2037],8.83 ± 0.57
16,TTTATTAAACTTGACACACACACACCCACATATATA [CACACA_site760],8.78 ± 0.33
17,ATCTTATATTATCACACACACACGCACAAAACAGAA [CACACA_site1463],9.02 ± 0.49
18,TAATTATTTCGTATATTTGAATGGTACATGCTTATA [CACACA_negctrl_site1178],8.44 ± 0.37
19,ATATAGAAAATGCATACACACTTTATATATATATTT [CACACA_site4658],8.26 ± 0.63
20,ATGGATTTTACCATAGCACACATATATGAATATTTT [CACACA_site8535],8.53 ± 0.47
21,AATGTGCTCGCTATTACACACTCATTGGGATAAAAT [CACACA_site8627],8.55 ± 0.39
22,AGTAACAATTATTATGCATGTACAAATAATCATTTT [TGCATGCA_site867],8.71 ± 0.28

row,Sequence,gcPBM binding intensity (ln)
1,TATATATATTTTTGAAGTACTTATTACACTAGCATT [XGTACX_site8965],8.73 ± 0.35
2,AAGAAAATATAACAAAGTAAAAACATATTATATATA [TGCATGCA_negctrl_site248],8.32 ± 0.41
3,TTTTTTTTTTTTTAATGTACAAATATGGTGACAAAA [XGTACX_site8709],8.44 ± 0.42
4,AAAAACGATTAATGTGTACACACATAGTTATAAACA [CACACA_site8659],8.64 ± 0.34
5,TTGTTCTATAATTATACATGCATTAACAGAGTAAAA [TGCATGCA_site909],9.38 ± 0.57
6,ATATATATATATATATGTACATATATTTTCTTTTTG [XGTACX_site6017],10.1 ± 0.27
7,AGGATAACATACAAAAGTACATAAAACTAAAAAAAC [XGTACX_site26],9.09 ± 0.26
8,TGGGAATAACGACACACACACACACGGATATAAATA [CACACA_site7633],8.91 ± 0.64
9,AAAAATAGTCTTCTTGCACTTTTTAATTTATTTTAA [CACACA_negctrl_site1322],8.29 ± 0.23
10,TGATTATCCTATATATATTTCATAATGGAAAAAAAT [TGCATGCA_negctrl_site444],8.21 ± 0.38
11,AATGTGGTATTTACAAAAAGGCTTTATACTTAAAAA [XGTACX_negctrl_site566],8.38 ± 0.43
12,TATATTTTGTTTTTGTGTACATATTGGTAGTTATTT [XGTACX_site7659],8.95 ± 0.43
13,CTTTTCATCTTCTTAACACACAAAAAAAAAAAAAAA [CACACA_site3886],8.29 ± 0.4
14,TTTGTTAAAAATATATTATGAATAAAAATATATTTT [CACACA_negctrl_site170],8.03 ± 0.33
15,AATTATATTACGAAATGTACATATAATAATGTATAT [XGTACX_site4410],8.48 ± 0.38
16,TTCAAAACTTAAAATCGTACAAGACAATTATTATAT [XGTACX_site6626],8.38 ± 0.42
17,GCCATTGTACCATCCACACACATATATATATGTATA [CACACA_site2704],9.24 ± 0.42
18,TATGTCAATCAAGCAAGTACATATATATATAAATAT [XGTACX_site7554],8.47 ± 0.42
19,TACAAAATAACTAGCACACATATGTATAAACATATA [CACACA_site5948],8.46 ± 0.35
20,TTAAAACATAAAAAAAGTACATACAAATATATATAA [XGTACX_site789],8.7 ± 0.3
21,CATATATATTTATGTACACACATTAATAAAAAAAAA [CACACA_site5741],8.58 ± 0.27
